# Experimental data as given in the supplement of paper PMC8728848.
# The other results are listed elsewhere or left out.
# Key:
# Assay in all cases: glycan array binding signal (z-score within array); higher = stronger binding
# Details in all cases: glycan notation: IUPAC condensed, linker removed
# [1] = biological target: Gal(b1-3)GlcNAc(b1-3)Gal(b1-4)[Fuc(a1-3)]GlcNAc(b1-6)[Gal(b1-3)GlcNAc(b1-3)]Gal(b1-4)Glc
# How it was run: (§1)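 The binding signal is a Z-score computed within each array and averaged over linkers. Arrays of the same protein sequence at different concentrations or buffers were also averaged together. Data originate from 3228 arrays in the Consortium for Functional Glycomics database, kept only where the protein sequence was available.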
# [2] = biological target: Gal(b1-3)GlcNAc(b1-3)GalNAc
# How it was run: as §1
# [3] = biological target: Gal(b1-3)GlcNAc(b1-6)Gal(b1-4)GlcNAc
# How it was run: as §1
# [4] = biological target: Gal(b1-3)[Fuc(a1-4)]GlcNAc
# How it was run: as §1
# [5] = biological target: Gal(b1-3)[Fuc(a1-4)]GlcNAc(b1-2)Man(a1-3)[Gal(b1-3)[Fuc(a1-4)]GlcNAc(b1-2)Man(a1-6)]Man(b1-4)GlcNAc(b1-4)GlcNAc
# How it was run: as §1
# [6] = biological target: Gal(b1-3)[Fuc(a1-4)]GlcNAc(b1-2)Man(a1-3)[Gal(b1-3)[Fuc(a1-4)]GlcNAc(b1-2)Man(a1-6)]Man(b1-4)GlcNAc(b1-4)[Fuc(a1-6)]GlcNAc
# How it was run: as §1
# [7] = biological target: Gal(b1-3)[Fuc(a1-4)]GlcNAc(b1-3)Gal(b1-3)[Fuc(a1-4)]GlcNAc
# How it was run: as §1
# [8] = biological target: Gal(b1-3)[Fuc(a1-4)]GlcNAc(b1-3)Gal(b1-4)GlcNAc
# How it was run: as §1
# [9] = biological target: Gal(b1-3)[Fuc(a1-4)]GlcNAc(b1-3)Gal(b1-4)[Fuc(a1-3)]GlcNAc
# How it was run: as §1
# [10] = biological target: Gal(b1-3)[GlcNAc(b1-6)]GalNAc
# How it was run: as §1
# [11] = biological target: Gal(b1-3)[Neu5Ac(a2-6)]GalNAc
# How it was run: as §1
# [12] = biological target: Gal(b1-3)[Neu5Ac(a2-6)]GlcNAc(b1-6)Gal(b1-4)Glc
# How it was run: as §1
# [13] = biological target: Gal(b1-3)[Neu5Ac(b2-6)]GalNAc
# How it was run: as §1
# [14] = biological target: Gal(b1-4)Gal
# How it was run: as §1
# [15] = biological target: Gal(b1-4)GalNAc(a1-3)[Fuc(a1-2)]Gal(b1-4)GlcNAc
# How it was run: as §1
# [16] = biological target: Gal(b1-4)GalNAc(b1-3)[Fuc(a1-2)]Gal(b1-4)GlcNAc
# How it was run: as §1
# [17] = biological target: Gal(b1-4)Glc
# How it was run: as §1
# [18] = biological target: Gal(b1-4)Glc6S
# How it was run: as §1
# [19] = biological target: Gal(b1-4)GlcNAc
# How it was run: as §1
# [20] = biological target: Gal(b1-4)GlcNAc(a1-6)Gal(b1-4)GlcNAc
# How it was run: as §1
# [21] = biological target: Gal(b1-4)GlcNAc(b1-2)Man(a1-3)Man(b1-4)GlcNAc(b1-4)GlcNAc
# How it was run: as §1
# [22] = biological target: Gal(b1-4)GlcNAc(b1-2)Man(a1-3)[Gal(b1-4)GlcNAc(b1-2)Man(a1-6)]Man(b1-4)GlcNAc(b1-4)GlcNAc
# How it was run: as §1
# [23] = biological target: Gal(b1-4)GlcNAc(b1-2)Man(a1-3)[Gal(b1-4)GlcNAc(b1-2)Man(a1-6)]Man(b1-4)GlcNAc(b1-4)[Fuc(a1-6)]GlcNAc
# How it was run: as §1
# [24] = biological target: Gal(b1-4)GlcNAc(b1-2)Man(a1-3)[Gal(b1-4)GlcNAc(b1-2)][GlcNAc(b1-4)]Man(b1-4)GlcNAc(b1-4)GlcNAc
# How it was run: as §1
# [25] = biological target: Gal(b1-4)GlcNAc(b1-2)Man(a1-3)[GlcNAc(b1-2)Man(a1-6)]Man(b1-4)GlcNAc(b1-4)GlcNAc
# How it was run: as §1
# [26] = biological target: Gal(b1-4)GlcNAc(b1-2)Man(a1-3)[Man(a1-6)]Man(b1-4)GlcNAc(b1-4)GlcNAc
# How it was run: as §1
# [27] = biological target: Gal(b1-4)GlcNAc(b1-2)Man(a1-6)Man(b1-4)GlcNAc(b1-4)GlcNAc
# How it was run: as §1
# [28] = biological target: Gal(b1-4)GlcNAc(b1-2)Man(a1-6)[GlcNAc(b1-2)Man(a1-3)]Man(b1-4)GlcNAc(b1-4)GlcNAc
# How it was run: as §1
# [29] = biological target: Gal(b1-4)GlcNAc(b1-2)Man(a1-6)[Man(a1-3)]Man(b1-4)GlcNAc(b1-4)GlcNAc
# How it was run: as §1
# [30] = biological target: Gal(b1-4)GlcNAc(b1-2)[Gal(b1-4)GlcNAc(b1-4)]Man(a1-3)[Gal(b1-4)GlcNAc(b1-2)Man(a1-6)]Man(b1-4)GlcNAc(b1-4)GlcNAc
# How it was run: as §1
# [31] = biological target: Gal(b1-4)GlcNAc(b1-2)[Gal(b1-4)GlcNAc(b1-4)]Man(a1-3)[Gal(b1-4)GlcNAc(b1-2)[Gal(b1-4)GlcNAc(b1-6)]Man(a1-6)]Man(b1-4)GlcNAc(b1-4)GlcNAc
# How it was run: as §1
# [32] = biological target: Gal(b1-4)GlcNAc(b1-2)[Gal(b1-4)GlcNAc(b1-4)]Man(a1-3)[GlcNAc(b1-4)][Gal(b1-4)GlcNAc(b1-2)Man(a1-6)]Man(b1-4)GlcNAc(b1-4)GlcNAc
# How it was run: as §1
# [33] = biological target: Gal(b1-4)GlcNAc(b1-2)[Gal(b1-4)GlcNAc(b1-6)]Man(a1-6)[GlcNAc(b1-4)][Gal(b1-4)GlcNAc(b1-2)Man(a1-3)]Man(b1-4)GlcNAc(b1-4)GlcNAc
# How it was run: as §1
# [34] = biological target: Gal(b1-4)GlcNAc(b1-3)Gal(b1-3)GlcNAc
# How it was run: as §1
# [35] = biological target: Gal(b1-4)GlcNAc(b1-3)Gal(b1-4)Glc
# How it was run: as §1
# [36] = biological target: Gal(b1-4)GlcNAc(b1-3)Gal(b1-4)GlcNAc
# How it was run: as §1
# [37] = biological target: Gal(b1-4)GlcNAc(b1-3)Gal(b1-4)GlcNAc(b1-3)Gal(b1-4)GlcNAc
# How it was run: as §1
# [38] = biological target: Gal(b1-4)GlcNAc(b1-3)Gal(b1-4)[Fuc(a1-3)GlcNAc(b1-6)]Gal(b1-4)Glc
# How it was run: as §1
# [39] = biological target: Gal(b1-4)GlcNAc(b1-3)Gal(b1-4)[Fuc(a1-3)]GlcNAc(b1-3)Gal(b1-4)[Fuc(a1-3)]GlcNAc
# How it was run: as §1
# [40] = biological target: Gal(b1-4)GlcNAc(b1-3)GalNAc
# How it was run: as §1
# [41] = biological target: Gal(b1-4)GlcNAc(b1-3)[Gal(b1-4)GlcNAc(b1-6)]Gal(b1-4)GlcNAc
# How it was run: as §1
# [42] = biological target: Gal(b1-4)GlcNAc(b1-3)[Gal(b1-4)GlcNAc(b1-6)]GalNAc
# How it was run: as §1
# [43] = biological target: Gal(b1-4)GlcNAc(b1-3)[GlcNAc(b1-6)]Gal(b1-4)GlcNAc
# How it was run: as §1
# [44] = biological target: Gal(b1-4)GlcNAc(b1-6)Gal(b1-4)GlcNAc
# How it was run: as §1
# [45] = biological target: Gal(b1-4)GlcNAc(b1-6)GalNAc
# How it was run: as §1
binder,measurement,setting,value
Gal 2 (Canis lupus) (protein) MSGKFEVMNMDMKLGGTLKIKGKIAGDADGFVINLGQGSDKLNLHFNPRFHESVIVCNSRNWGQEQRDKHMCFSPGSEVKFTVTFENDGFKVKLPDGHQLTFPNRLGHSHLSYLGVQGGLKVSSFKIE,glycan array binding signal (z-score),[1],-0.071
same,glycan array binding signal (z-score),[2],-0.063
same,glycan array binding signal (z-score),[3],-0.071
same,glycan array binding signal (z-score),[4],-0.205
same,glycan array binding signal (z-score),[5],0.511
same,glycan array binding signal (z-score),[6],-0.279
same,glycan array binding signal (z-score),[7],-0.204
same,glycan array binding signal (z-score),[8],0.099
same,glycan array binding signal (z-score),[9],-0.275
same,glycan array binding signal (z-score),[10],0.161
same,glycan array binding signal (z-score),[11],-0.103
same,glycan array binding signal (z-score),[12],-0.068
same,glycan array binding signal (z-score),[13],0.042
same,glycan array binding signal (z-score),[14],0.144
same,glycan array binding signal (z-score),[15],0.36
same,glycan array binding signal (z-score),[16],-0.051
same,glycan array binding signal (z-score),[17],-0.07
same,glycan array binding signal (z-score),[18],-0.011
same,glycan array binding signal (z-score),[19],0.104
same,glycan array binding signal (z-score),[20],-0.369
same,glycan array binding signal (z-score),[21],0.077
same,glycan array binding signal (z-score),[22],-0.042
same,glycan array binding signal (z-score),[23],0.632
same,glycan array binding signal (z-score),[24],-0.265
same,glycan array binding signal (z-score),[25],-0.206
same,glycan array binding signal (z-score),[26],-0.281
same,glycan array binding signal (z-score),[27],-0.186
same,glycan array binding signal (z-score),[28],-0.286
same,glycan array binding signal (z-score),[29],-0.225
same,glycan array binding signal (z-score),[30],0.169
same,glycan array binding signal (z-score),[31],-0.253
same,glycan array binding signal (z-score),[32],-0.391
same,glycan array binding signal (z-score),[33],-0.164
same,glycan array binding signal (z-score),[34],0.009
same,glycan array binding signal (z-score),[35],-0.382
same,glycan array binding signal (z-score),[36],-0.157
same,glycan array binding signal (z-score),[37],0.063
same,glycan array binding signal (z-score),[38],0.241
same,glycan array binding signal (z-score),[39],-0.325
same,glycan array binding signal (z-score),[40],-0.053
same,glycan array binding signal (z-score),[41],-0.294
same,glycan array binding signal (z-score),[42],-0.346
same,glycan array binding signal (z-score),[43],-0.073
same,glycan array binding signal (z-score),[44],-0.044
same,glycan array binding signal (z-score),[45],0.016
